The values that follow come from PubChem BioAssay AID488969 (Vanderbilt High Throughput Screening Facility, 2010).

Molecules are shown by their SMILES. The full ranking holds about 110,000 compounds; the median of “z-score” is about -0.1, and the highest 2% start at about 2. The list shows a part of the results.

The target of this experiment is Metabotropic glutamate receptor 8 (Rattus norvegicus) (UniProt P70579). The experiment is described as follows: rat mGluR8 modulators via GIRK flux, primary screen, cell-based, thallium flux, HTS (AID 488969). Conditions: HEK293 rat mGluR8, GIRK (G protein-gated inwardly rectifying potassium channel) thallium flux, FluoZin2; at 10 µM; stronger effect = higher value; submaximal glutamate (EC20) added with thallium.
Sequence of UniProt P70579 (P70579 whole entry, looked up): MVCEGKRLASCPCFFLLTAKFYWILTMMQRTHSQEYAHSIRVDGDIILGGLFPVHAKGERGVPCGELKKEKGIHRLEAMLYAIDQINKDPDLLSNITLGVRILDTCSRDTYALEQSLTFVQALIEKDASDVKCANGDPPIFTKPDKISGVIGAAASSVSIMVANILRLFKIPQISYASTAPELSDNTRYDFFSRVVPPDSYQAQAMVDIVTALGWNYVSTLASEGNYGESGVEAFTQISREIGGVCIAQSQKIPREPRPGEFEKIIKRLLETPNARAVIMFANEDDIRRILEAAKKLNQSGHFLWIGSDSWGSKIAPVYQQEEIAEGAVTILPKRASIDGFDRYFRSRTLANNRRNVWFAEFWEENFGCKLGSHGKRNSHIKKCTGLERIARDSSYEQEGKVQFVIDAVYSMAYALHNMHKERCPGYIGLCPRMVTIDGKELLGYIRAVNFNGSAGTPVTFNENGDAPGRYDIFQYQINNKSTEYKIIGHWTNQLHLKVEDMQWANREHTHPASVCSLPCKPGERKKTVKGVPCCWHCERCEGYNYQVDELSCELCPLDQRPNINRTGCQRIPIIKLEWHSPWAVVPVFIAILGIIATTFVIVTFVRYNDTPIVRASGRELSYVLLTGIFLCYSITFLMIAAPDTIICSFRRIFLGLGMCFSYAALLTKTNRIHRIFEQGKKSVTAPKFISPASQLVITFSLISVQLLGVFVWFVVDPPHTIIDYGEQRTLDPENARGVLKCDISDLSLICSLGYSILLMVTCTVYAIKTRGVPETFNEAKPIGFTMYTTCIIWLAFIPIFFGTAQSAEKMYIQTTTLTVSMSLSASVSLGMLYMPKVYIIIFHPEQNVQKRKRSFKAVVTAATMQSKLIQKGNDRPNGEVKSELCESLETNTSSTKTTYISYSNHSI
As to `CC(=O)c1c(OC(=O)c2ccc(C)cc2)c2ccccc2n1C`, the z-score was 0.478.
Molecule `COCCCNC(=O)COc1ccc(S(=O)(=O)Nc2ccccc2)cc1` gave a z-score of 0.539.
The same measure for `c1ccc2c(-c3ccncc3)c[nH]c2c1`: -0.155; for `CC(C)c1nc(SCc2c(F)cccc2Cl)c2c(=O)n(C)c(=O)n(C)c2n1`: -0.252.
In turn, `Cc1c(NC(=O)CSc2cccc3cccnc23)c(=O)n(-c2ccccc2)n1C` registered a z-score of 0.322.
The molecule `COc1cccc(-c2nnc3sc(-c4ccccn4)nn23)c1` showed a z-score of -0.955.
The same measure for `CCOC(=O)C(NC(=O)Nc1ccc(F)cc1)(OCC)C(F)(F)F` (stereo not drawn): 0.0672; for `CCCc1nnc(SCC(=O)N2CCCCC2)n1CCCOC`: 0.239; for `Cc1cc(N2CCC(C(=O)NC3CC3)CC2)nc(-c2ccccc2)n1`: 1.41.
The same measure for `COCCN(CCOC)C(=O)c1sc2nc(-c3ccccc3)cn2c1C`: -0.267; for `Cc1c(C(=O)Oc2cccc3ccccc23)cnn1-c1ccccc1`: -0.188; for `O=C(N1CCCCC1)C12CC3CC(CC(C3)C1)C2`: 0.221.
To `O=C(NC1CCCCCCC1)C1c2ccccc2C(=O)N1Cc1cccs1` (stereo not drawn) belongs 0.201; to `Cn1cc(S(=O)(=O)N2CCC(Cc3ccccc3)CC2)c(=O)n(C)c1=O`, 0.186; to `CCOC(=O)C1=C(C)Nc2ncnn2C1c1cc(OC)ccc1OC` (stereo not drawn), 0.212.
Consider `COc1ccc(C(CNC(=O)Cc2cc(OC)c(OC)c(OC)c2)N2CCCC2)cc1` (stereo not drawn), for which the z-score turned out to be 0.489.
`CCN(CC)C(=O)CSc1nc(-c2cccs2)cc(-c2cccs2)c1C#N`: the z-score came to 0.0765.
In the case of `COc1cccc(NC(=O)C(=O)N/N=C/c2cc(C)n(-c3ccc(Cl)c(Cl)c3)c2C)c1`, the z-score is -0.064.
In turn, `Cc1ccc2occ(CN3CCN(c4ccccc4)CC3)c(=O)c2c1` showed a z-score of -1.51.
The molecule `CCCC(=O)OCCNc1cc(Sc2nccn2C)c2nonc2c1[N+](=O)[O-]` displayed a z-score of -0.299.
Take `O=C(COc1ccc(Cl)cc1Cl)NCC(=O)N/N=C/c1c[nH]c2ccccc12`: the z-score was -0.355.
The same measure for `CCCCNC(C(=O)Nc1ccc([N+](=O)[O-])cc1Br)c1ccccc1` (stereo not drawn): -0.247; for `O=C(c1ccc(Cl)cc1)N(Cc1cccs1)C1CCS(=O)(=O)C1` (stereo not drawn): -0.691.
To `Cc1ccc2nc3c(nc2c1)-c1ccccc1C3=O` belongs 0.159.
`Cc1ccc(S(=O)(=O)Cn2nnnc2CN(Cc2ccco2)CC2CCCO2)cc1` (stereo not drawn) yielded a z-score of 0.699.
The same measure for `Cc1cc(C(=O)COC(=O)c2ccc[nH]c2=O)c(C)n1-c1ccc(F)cc1`: -0.134.
To `COCCn1c(=O)[nH]c2cc(C(=O)NCCN3CCN(c4cccc(Cl)c4)CC3)ccc2c1=O` belongs -0.723.
The molecule `COc1ccc(CC(=O)NC(=S)Nc2ccc(S(=O)(=O)NC(C)(C)C)cc2)cc1` had a z-score of 0.142.
In the case of `Cc1occc1C(=O)Nc1cc(C(F)(F)F)ccc1Cl`, the z-score was -0.0378.
In the case of `COc1ccc(Cl)cc1C(=O)NNC(=S)NC(=O)c1cc(-c2ccc(Cl)cc2)nc2ccccc12`, the z-score stood at 0.219.
In the case of `Cc1nn(-c2ccccc2)c(C)c1/C=N/n1c(-c2ccc(Cl)cc2)n[nH]c1=S`, the z-score turned out to be 0.338.
In turn, `COC(=O)c1sc(NC(=O)CSc2nnc(Cn3nnc4ccccc43)n2C)nc1C` registered a z-score of 0.0796.
The same measure for `Cc1ccn2c(C(=O)CSc3ccccc3Cl)c(C)nc2c1`: -0.0109.
On to `CC1Cc2ccccc2N1C(=O)C12CCC(C)(C(=O)C1)C2(C)C` (stereo not drawn), for which the z-score is -0.11.
To `COc1cccc(OC)c1OCCOCCn1cnc2ccccc2c1=O` belongs -0.56; to `O=C(CSc1n[nH]c(-c2ccccc2)n1)Nc1ncc(Br)cc1Br`, -0.296.
To `COc1ccc(NC(=O)CC2(Cc3ccccc3)CCOC(C)(C)C2)cc1` (stereo not drawn) belongs -0.323; to `CCOC(=O)CSc1nc(C)nc2c1sc1nc(C)c(C(C)=O)c(-c3ccc(OC)cc3)c12`, 1.29.
The same measure for `CCC(=O)Nc1nc2c(s1)COc1ccccc1-2`: 0.0756; for `Cc1cc2nnc(SC(C)C)n2c2ccccc12`: -1.9.
`Cc1cc([N+](=O)[O-])ccc1NC1CCCC1` displayed a z-score of -0.214.
Turning to `COc1ccc(N2CCN(c3nc4ccccn4c(=O)c3C=O)CC2)cc1`, the z-score is -0.125.
To `CC1CCCN(C(=O)CCS(=O)(=O)Cc2ccccc2)C1` (stereo not drawn) belongs -0.127.
To `CC(C)OCCCN1CN(S(=O)(=O)c2cccc(Cl)c2)c2nc3ccccc3nc21` belongs -0.386.
Regarding `CC(=O)c1nn(-c2cccc(Br)c2)cc1C(=O)c1ccc(C)cc1`, the z-score is 0.00622.
`CCOC(=O)CNC(=O)c1cccnc1` yielded a z-score of 0.114.
To `O=c1[nH]cnc2scc(-c3ccc(F)cc3)c12` belongs -0.0775; to `COc1ccc(-c2noc(CSc3nc(N)c(-c4ccccc4)c(=O)[nH]3)n2)cc1OC`, 0.24; to `C=CCNc1nnc(-c2ccncc2)s1`, -0.222.
On to `CCn1c(C(C)NC(=O)c2ccc(OC)c(OC)c2)nc2ccccc21` (stereo not drawn), for which the z-score amounted to 0.719.
On to `Cn1cccc1CNC(=O)Nc1ccc(Cl)c(Cl)c1`, for which the z-score came to 0.356.
The molecule `CCC(=O)Nc1nonc1-c1nc2ccccc2n1Cc1cccc2ccccc12` displayed a z-score of 0.857.
The same measure for `CSc1ccccc1C(=O)Nc1cccc(C)c1`: -0.792; for `COc1ccc(N2C(=O)C3C4C=CC(CC4)C3C2=O)c([N+](=O)[O-])c1` (stereo not drawn): -0.215; for `CCN(C(=O)COC(=O)c1cc(-c2ccc3cc(OC)ccc3c2)nc2ccccc12)C1CCS(=O)(=O)C1` (stereo not drawn): -0.33.
The same measure for `Cc1ccc(/C=N/n2c(C)cc(C)c(C#N)c2=O)cc1`: -0.313; for `COc1cc2c(cc1NC(=O)/C=C/c1ccccc1)oc1ccccc12`: -0.194.
As for `CC(C)C(OC(=O)c1nsc(Cl)c1Cl)C(=O)NCc1ccc2c(c1)OCO2` (stereo not drawn), the z-score is -0.236.
Consider `CC1CN(S(=O)(=O)c2ccc(C(=O)Nc3ccc(S(=O)(=O)Nc4nccs4)cc3)cc2)CC(C)O1` (stereo not drawn), for which the z-score is -0.166.
The same measure for `N#Cc1c(-c2ccccc2)cc(C2CC2)nc1SCC(=O)c1cccs1`: 0.168; for `O=C(C(Cc1ccccc1)N1C(=O)C2C3C=CC(C3)C2C1=O)N1CCCCCC1` (stereo not drawn): 0.597; for `COc1ccc(-c2[nH]c(-c3cc(OC)c4c(c3)OCO4)nc2-c2ccccc2)cc1`: -0.0302.
To `Clc1ccc(-c2c[n+](Cc3cccc(Cl)c3)c3n2CCC3)cc1` belongs -0.344; to `CSC1=N/C(=C\c2ccc(C)cc2)C(=O)S1`, -0.344; to `COc1cc2c(C(=O)NCc3ccc4c(c3)OCO4)cn(CC(C)C)c(=O)c2cc1OC`, -0.451.
With `O=C(CSc1nnc2c(n1)[nH]c1ccc(F)cc12)OCc1ccccc1`, the z-score was found to be 0.106.
The same measure for `CC1CCCC(C)N1NC(=S)Nc1ccc(OC(F)F)cc1` (stereo not drawn): -0.0533.
`Cc1ccn(CC(=O)N/N=C/c2cc([N+](=O)[O-])ccc2O)n1` displayed a z-score of 1.59.
To `Cc1c(C(=O)NCC2COc3ccccc3O2)oc2ccc(S(=O)(=O)N3CC(C)CC(C)C3)cc12` (stereo not drawn) belongs -0.128.
The same measure for `COc1cccc(C2CC(c3ccccc3Cl)Nc3nc(N)nn32)c1` (stereo not drawn): 0.0252; for `CCOC(=O)/C(C(N)=NCCO)=C(/O)c1ccccc1`: -0.561; for `COC(=O)c1ccc(CC(=O)c2nc3ccccc3s2)cc1`: 0.0549.
As to `O=C(COC(=O)c1ccc(S(=O)(=O)NCc2ccco2)cc1)NC1CCCCC1`, the z-score is -0.0764.
To `COc1cccc(NS(=O)(=O)c2nc3nc(C)cc(C)n3n2)c1` belongs -0.0439; to `CCCSc1nc2c(cnn2-c2ccc(C)c(C)c2)c(=O)[nH]1`, -0.398.
The same measure for `Cc1ccc(C(=O)Nc2c(C#N)c(C)c(C)n2Cc2ccccc2)cc1`: -0.166.
For the molecule `COCc1nnc(NC(=O)CCc2ccccc2)s1`, the z-score is -0.154.
With `Cc1c(N=Cc2c(O)n(Cc3ccco3)c(=O)c3ccccc23)c(=O)n(-c2ccccc2)n1C`, the z-score is -1.95.
The same measure for `COc1cccc(-c2cc(N)nn2C(=O)Nc2ccc(Cl)cc2)c1`: 0.894; for `Cc1cccc(N(C(=O)c2sc(C)nc2C)C(C(=O)NCc2ccco2)c2ccccc2)c1` (stereo not drawn): -1.18; for `O=C(CCN1C(=O)C2CCCCC2C1=O)NNC(=O)c1cccc(Cl)c1` (stereo not drawn): -0.214.
On to `O=S(=O)(c1ccc2c(c1)N(Cc1ccc(Cl)cc1)C1CCCN21)N1CCOCC1` (stereo not drawn), for which the z-score is 0.105.
In turn, `Cc1ccc2c(C)cc[n+](CCCS(=O)(=O)[O-])c2c1` came in with a z-score of -0.475.
The molecule `O=C1NCC(CN(c2ccccc2)c2ccccc2)O1` (stereo not drawn) returned a z-score of -0.57.
On to `CCOC(=O)C1CCN(Cc2nc3ccccc3c(=O)n2-c2ccc(F)cc2)CC1`, for which the z-score is -0.219.
`N#Cc1c(NC(=O)Cn2cnc3ccccc3c2=O)oc(-c2ccccc2)c1-c1ccccc1` displayed a z-score of -0.403.
`COc1cc(/C=C(/NC(=O)c2ccccc2)C(=O)N2CCN(C)CC2)c([N+](=O)[O-])cc1OC`: the z-score turned out to be 0.00529.
`Cc1ccccc1CSc1nnc(C)c(=O)[nH]1` came in with a z-score of -1.64.
`COc1ccc(Cn2nnnc2C(C(C)C)N2CCc3ccccc32)cc1` (stereo not drawn) yielded a z-score of -0.681.
Molecule `COC(=O)C1=C(C)N(Cc2ccco2)C(=O)C1` had a z-score of -0.236.
`O=C(Nc1ccc(N2CCN(C(=O)c3ccco3)CC2)c(Cl)c1)c1cc2ccccc2o1` gave a z-score of 0.12.
The same measure for `COc1ccc(NS(=O)(=O)c2ccc(NC(=O)Cc3cccs3)cc2)cc1`: -0.263.
In the case of `Cc1ccc(C(C)C)c(OCCCN2C(=O)NC(C)(C)C2=O)c1`, the z-score was -0.0616.
In turn, `CNC(=O)c1cccnc1Nc1cccc(C(F)(F)F)c1` showed a z-score of -0.271.
Molecule `COc1ccc(S(=O)(=O)Nc2ccc(C)cc2)cc1OC` gave a z-score of -0.166.
`CCOC(=O)c1cnc(-n2nc(C)cc2C)nc1NNc1nc(-c2ccccc2)cc(-c2ccccc2)n1` returned a z-score of 1.52.
To `O=C1CC(C(=O)NCc2ccccc2)N=C(N2CCCCC2)N1` (stereo not drawn) belongs -0.139; to `c1ccc(CN2CCN(c3nc4ccccc4c4ccccc34)CC2)cc1`, -0.0842.
To `COc1ccccc1CNC(=O)C(CC(C)C)NS(=O)(=O)c1ccc2c(c1)oc(=O)n2C` (stereo not drawn) belongs -0.127; to `N/C(=N\OC(=O)CCCN1C(=O)c2ccccc2C1=O)c1ccc(Cl)cc1`, -0.264.
The same measure for `CCOP(=O)(OCC)c1nc(/C=C/c2ccccc2)oc1NCc1ccc(OC)cc1`: -0.161; for `Nn1c(COc2ccccc2)nnc1SCc1cc(=O)[nH]c2ccccc12`: -0.0617.
On to `COCC(C)NCc1cccc(C)c1` (stereo not drawn), for which the z-score was -0.316.
`CC(NC(=O)c1ccc(C(C)(C)C)cc1)C(=O)O` (stereo not drawn) returned a z-score of -0.0659.
The same measure for `CCSc1nc2sc3c(c2c(=O)[nH]1)CCCC3`: 0.575; for `COC(=O)/C(=C\Nc1cccc(Cl)c1C)c1ncc(C(F)(F)F)cc1Cl`: -0.0603.
`COc1ccc(OCc2nc(N)nc(Nc3ccc(C)cc3)n2)cc1`: the z-score was found to be 0.32.
`CCOc1ccc(C(Nc2ccc(C)cc2)P2(=O)OCC(C)(C)CO2)cc1` (stereo not drawn) showed a z-score of -0.774.
